Values quoted from earlier work in PMC11323271 (Journal of Chemical Information and Modeling, 2024).
≈ marks a conversion by molar mass, not a printed value.

Assays:
Settings in all cases: cited from earlier work
M. tuberculosis H37Rv = system: M. tuberculosis H37Rv
M. tuberculosis [1] = system: M. tuberculosis
M. tuberculosis [2] = system: M. tuberculosis; remark: listed apart in the source

SMILES | IC50, growth inhibitory activity in words (M. tuberculosis H37Rv) | other results
CCN(CC)CC(O)Cn1c2ccccc2c2ccccc21 (stereo not drawn) [AE-641/05526042] | Inactive | 
OC(CN1CCOCC1)Cn1c2ccccc2c2ccccc21 (stereo not drawn) [AE-641/05526043] | Inactive | 
CCCN(CCC)CC(O)Cn1c2ccccc2c2ccccc21 (stereo not drawn) [AG-205/06683048] | Inactive | 
OC(CN1CCCCC1)Cn1c2ccccc2c2ccccc21 (stereo not drawn) [AG-205/06683053] |  | IC50, growth inhibitory activity in words (M. tuberculosis [1]): Inactive
Cc1ccc2c(c1)c(-c1ccccc1)c(-c1ccccc1)n2CC(O)CN1CCN(CCO)CC1 (stereo not drawn) [AP-124/41376194] |  | IC50, M. tuberculosis growth inhibitory activity (M. tuberculosis H37Rv): 1.84 µg/mL (≈ 3.92 µM)
CO[C@H]1[C@H](OC(=O)c2ccc(C)[nH]2)[C@H](O)[C@@H](Oc2ccc3c(O)c(NC(=O)c4c[nH]c(C(=O)Nc5c(O)c6ccc(O[C@H]7OC(C)(C)[C@@H](OC)[C@H](OC(=O)c8ccc(C)[nH]8)[C@@H]7O)c(C)c6oc5=O)c4C)c(=O)oc3c2C)OC1(C)C [coumermycin A1] |  | MIC, M. tuberculosis growth inhibition (M. tuberculosis [2]): 2.5 µg/mL (≈ 2.25 µM)
